Test results: publication PMC12136788
Some of the results follow.

T1: UNK ZnF1-3 (human, UniProt Q9C0B0 31-174)
T1 sequence: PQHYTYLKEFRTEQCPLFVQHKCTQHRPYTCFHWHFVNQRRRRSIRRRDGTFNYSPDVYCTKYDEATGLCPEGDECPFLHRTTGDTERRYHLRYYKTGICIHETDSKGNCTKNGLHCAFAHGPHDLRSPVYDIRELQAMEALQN

B1: chr17:60770872:60770873:+_ENSG00000011028_ENST00000303375|hu_hu|hu_hu_hu_mus_True|18_38 (ssRNA)
RNA: GGGAGUUCUACAGUCCGACGAUCUCUUUAAAAAAAAAAAAAAAAAGACAAACAAUAAUAGCACAUUUCGAGAAUCAAGAACUACAAUAGAGGGUCCAUGUCUUCGAUUUGUUCACAACAUUGUCCCCUGGGACACGGGGACUGCAACAGAGGAUUGAGCAUCA
B2: 136383708_136384303_1458_CDS_ENSMUSG00000026455_ENSMUST00000027725|mouse|control|control (ssRNA)
RNA: GGGAGUUCUACAGUCCGACGAUCCAUAGGCGUAACGUUAGUCCAGUGUCCUGUAUGGGGAUCAUAUUUCUCAACUGAAUUUAAUAUGUUCAAGCCAUCAUAUCCUCCUAGACAAUAGAUUAUUCCGCUGGCCACUACUAGUCCCAACAGAGGAUUGAGCAUCA
B3: 125752430_125758377_1055_3pUTR_ENSG00000011454_ENST00000373647|human|control|control (ssRNA)
RNA: GGGAGUUCUACAGUCCGACGAUCCUUAUCAAUUCCUUGGCGUAGUUUAAAGCACUGUCUGUCCUUAUCUUUGGGAACUGCACUAAAAUAACCUUUACCAUCAUCUUCUUUUAUUUCUAAAGACACAGAGAAGGUAAAGAUGUCCAACAGAGGAUUGAGCAUCA
B4: chr4:39779992:39779993:+_ENSG00000078140_ENST00000510719|hu_hu|FALSE|FALSE (ssRNA)
RNA: GGGAGUUCUACAGUCCGACGAUCCUCAGAAGCAAUUCUGUUGCAGUCUCUACAUCCCAUGAUUUUGAAGACAAGGCCACUAUUACUGCAUUCCUAUCAAAGCCCAUAGCACAUAGGUUUUCUAUUUUUUUGGUGUAUUCUGGACAACAGAGGAUUGAGCAUCA
B5: chr5:128448638:128448639:+_ENSG00000066583_ENST00000173527|hu_mus|hu_hu_hu_mus_False|8_8 (ssRNA)
RNA: GGGAGUUCUACAGUCCGACGAUCGGCACUCGCCUUAAUUAGGUUCUGAAUUUCCUUGAACUUCGGGUGGUCUUUGUCAGCCACCAGCUGUAGGAGGACAGCCUCACUAGUGGUCACGAUGAUCCCAGUUCGAGCGAGACGCUCCAACAGAGGAUUGAGCAUCA
B6: chr4:101271765:101271766:+_ENSMUSG00000028528_ENSMUST00000094953|mus_hu|FALSE|FALSE (ssRNA)
RNA: GGGAGUUCUACAGUCCGACGAUCAGACUUAGGUGACAGAUUGUAUACUGUGUAGUGGUCAAGAUGUCUGGAAUCCAAAAAGCUUCGAAUGUCAUCAACCUGAUUCCUGAAUCCUAUGUCAACAUUGUCCAGAGGAAAGGACAUCAACAGAGGAUUGAGCAUCA
B7: chrX:131339419:131339420:-_ENSMUSG00000033436_ENSMUST00000035559|mus_hu|FALSE|FALSE (ssRNA)
RNA: GGGAGUUCUACAGUCCGACGAUCAUUCGAAAGGAUUUUCAAAAUCUCAACCUUGAUUUUUCCACCUCCCUGAGAUAGCAAACGGAAAAAGUUUGCAAUGGAAUUGACAAGCAGGUGCUGGUAGUCAUUAGUAAUAGUCAUGUUCAACAGAGGAUUGAGCAUCA
B8: 95574870_95578233_1546_CDS_ENSG00000087053_ENST00000352297|human|control|control (ssRNA)
RNA: GGGAGUUCUACAGUCCGACGAUCUCUUAGUUGAAAUCGAUGUCCAAAACUUAGCCAUUCUUUCUCCACAAGGACUUCAAAUCCUCGGAUGGUUCGAUAGUAUCCAUCCAACAUGAGCAUGGCAAGGGAAGUGAGCUGAGCUGUCAACAGAGGAUUGAGCAUCA
B9: chr12:39763582:39763583:-_ENSG00000139116_ENST00000544797|hu_mus|hu_hu_hu_mus_False|1_1 (ssRNA)
RNA: GGGAGUUCUACAGUCCGACGAUCCUCUAGGAACUGGGCAUUCACUUUGAAUUCAGGAGGGGGCAGCCCGUUUUUAAUCGCUGAGGUCUUUUUCUCAUCAAUACUCUUGAACAGGUGUCUAACAGCACGAGAGAUGAUACCCAGCAACAGAGGAUUGAGCAUCA
B10: chr1:115282363:115282364:-_ENSG00000009307_ENST00000339438|perfect_dup|FALSE|FALSE (ssRNA)
RNA: GGGAGUUCUACAGUCCGACGAUCAUCAUCUCCUACUUUUAAGUCUUGCAGGUUGCCAUUAUACUGUGAACAGUGGAAGAAAAGUCUAGCUUGACGUUCUGAACACUGAAUAAAUCCGUAAGAGGUUAACAGUUUUUCAAUAACCAACAGAGGAUUGAGCAUCA
B11: 131810538_131812914_573_CDS_ENSG00000152102_ENST00000409185|human|control|control (ssRNA)
RNA: GGGAGUUCUACAGUCCGACGAUCGACCGGGUGGGGGGCGACAGGAGUUGGGGAGUGAGCAGUCAGCAGGGUACCUGCUGACAUGGCCAUGGUGGUCCCAGCCACCAUGCCCAUGGUGACCCCGUUGCCUCUAGGAGGGGGGAUCAACAGAGGAUUGAGCAUCA
B12: chr11:93807532:93807533:+_ENSMUSG00000059474_ENSMUST00000107854|mus_mus|FALSE|FALSE (ssRNA)
RNA: GGGAGUUCUACAGUCCGACGAUCGUACACGUUGAACUGUGAAAGAGAACGGGCUACUGAGCUGUACGACGACAGGCAUUAUGGCUACGAUGGAAGCCUCCUCUGGUUAACGGUCUGUGUUAGCAGCAGGAGCGAGGGUCUUAACAACAGAGGAUUGAGCAUCA
B13: 247062812_247063484_1498_CDS_ENSG00000153207_ENST00000391829|human|control|control (ssRNA)
RNA: GGGAGUUCUACAGUCCGACGAUCAUCAAAAUUAUAAGUGCUUGGAUUAAAAAACUGCUCGGGAGGUGGAUAUGAAGGAGGGACUCCUCUAUUUAAACUUCUCUCAUGUACUAAUAUAUCCAAGAUGCCAUGUGGAGAAGUCCUCAACAGAGGAUUGAGCAUCA
B14: chr17:73774773:73774774:-_ENSG00000132475_ENST00000586270|hu_mus|FALSE|FALSE (ssRNA)
RNA: GGGAGUUCUACAGUCCGACGAUCUUUGGGCAUGAUGGUGACUCUCUUGGCGUGGAUGGCACACAGAUUGGUAUCUUCAAACAACCCCACCAGGUAUGCUUCGCUAGCCUCCUGAAGGGCACCGAUGGCUGCACUUUGAAACCUCAACAGAGGAUUGAGCAUCA
B15: 9605724_9608256_2938_CDS_ENSMUSG00000048264_ENSMUST00000174552|mouse|control|control (ssRNA)
RNA: GGGAGUUCUACAGUCCGACGAUCCGGCCUCUGCUCAGCCACAAUCACUAUCCUUUCAUCAUGAAGGACAGUCACUGAGAACACAGCUAUCCUGCCUCUGUAGACAAACUUCAUGGGCUCUACAGCUAAGGCUGUGGCCACAAUCAACAGAGGAUUGAGCAUCA
B16: chr4:48249827:48249828:-_ENSMUSG00000028343_ENSMUST00000030028|mus_hu|motif|central (ssRNA)
RNA: GGGAGUUCUACAGUCCGACGAUCCUCAAAAAUUGGAUGCAACAUCUGACUGAAACGACACCAGUCAGCAUAAAAAUUUACGGAAGCAACAUCAGCAUUGUUUAAAAUUUCAUCUAUAUUCUCUGUAUCAAGACUUGUUAUUUCCAACAGAGGAUUGAGCAUCA
B17: chr1:173059340:173059341:-_ENSMUSG00000058076_ENSMUST00000111336|mus_mus|FALSE|FALSE (ssRNA)
RNA: GGGAGUUCUACAGUCCGACGAUCGAGUCAAGCAUAAAAUGAGUAGUACUUUAAUCGUUUCCAAAGAAGAUGGUACAAGAAUUUAGAUUAGAAAAUAUGACAUUAAAGGUGUAUUUUCCUAGAAAUGAAAAACAGAACAGAAACCAACAGAGGAUUGAGCAUCA
B18: chr2:178407766:178407767:+_ENSG00000018510_ENST00000264167|hu_hu|FALSE|FALSE (ssRNA)
RNA: GGGAGUUCUACAGUCCGACGAUCAUUGACUGAUUCGAUGUGUAUCAGAGUACAGGUCCACCAUACAAUUAGUUAAAUAUACUAGAACAGAUUAUCCAAAACAACACUGUGGAAAGAAUUACCAGUGUUUCCACAUAUAACUGCCAACAGAGGAUUGAGCAUCA
B19: chr16:94664741:94664742:+_ENSMUSG00000040785_ENSMUST00000117648|mus_hu|mus_mus_mus_hu_False|38_48 (ssRNA)
RNA: GGGAGUUCUACAGUCCGACGAUCUGGUACUGAUCUUGGUAGCUGAUAUUCAGGAGAAAGGCUGGCCAAGGGUGUAUAUAUGCUGGUGAACUGCGACAGGCUAGGUAACACGUUUAUGUAUGCUGGCGGUGUCUGGGUGAUAUCCAACAGAGGAUUGAGCAUCA
B20: chr14:100422286:100422287:-_ENSMUSG00000072294_ENSMUST00000097079|mus_hu|motif|central (ssRNA)
RNA: GGGAGUUCUACAGUCCGACGAUCAGGGGACGUCCUGGCUUUGUUUAUUGACAAGUCCACUGGCUCAGUUUGUGUUUGGAAGUGAUCGGCAGAUAACGAGUCCUCCGGGGGCUCCCCUUUCACAUUAUUUAGCAACAGGGGAACCAACAGAGGAUUGAGCAUCA
B21: chr6:18258251:18258252:-_ENSG00000124795_ENST00000397239|hu_mus|motif|central (ssRNA)
RNA: GGGAGUUCUACAGUCCGACGAUCCUUCUUCAACGAGGACACUGUGCCCGGCCUGUUGUAAAGCAGUUUGUGUAGAUUUCGGAGUUCAUCUGGUUUUUUCUUACUCAGAAAGAAAUGUAUCCUUUCAAUUUCACAAAGUUUCUGCAACAGAGGAUUGAGCAUCA
B22: chr14:62205016:62205017:+_ENSG00000100644_ENST00000337138|hu_hu|FALSE|FALSE (ssRNA)
RNA: GGGAGUUCUACAGUCCGACGAUCCUGAUCCUGAAUCUGGGGCAUGGUAAAAGAAAGUUCCAGUGACUCUGGAUUUGGUUCUAAUUUUAAUGCAACUUCUUGAUUGAGUGCAGGGUCAGCACUACUUCGAAGUGGCUUUGGCGUCAACAGAGGAUUGAGCAUCA

molecular target: T1, UNK ZnF1-3; experiment: nsRBNS (natural sequence RNA bind-n-seq); RBNS binding buffer (assumed for nsRBNS): 25 mM Tris pH 7.5, 150 mM KCl, 3 mM MgCl2, 0.01% Triton X-100, 500 ug/ml BSA, 20 U/ml SUPERase-In, 4 C; UNK is unkempt and MSI1 is Musashi-1; names of the RNAs are library labels; protein concentration not given here; high values mean tight binding

In order of falling binding signal:
1. B16  3.08 enrichment R
2. B1  2.62 enrichment R
3. B13  1.69 enrichment R
4. B17  1.68 enrichment R
5. B6  1.48 enrichment R
6. B10  1.19 enrichment R
7. B11  1.13 enrichment R
8. B18  1.12 enrichment R
9. B9  1.09 enrichment R
10. B7  1.08 enrichment R
11. B19  1.06 enrichment R
12. B14  1.05 enrichment R
13. B12  0.981 enrichment R
14. B3  0.931 enrichment R
15. B2  0.908 enrichment R
16. B22  0.851 enrichment R
17. B4  0.846 enrichment R
18. B8  0.79 enrichment R
19. B15  0.781 enrichment R
20. B20  0.691 enrichment R
21. B5  0.667 enrichment R
22. B21  0.594 enrichment R
